PubChem BioAssay AID1030 (National Center for Advancing Translational Sciences (NCATS), 2008)
About 16,000 (7.3%) of roughly 220,000 compounds were called active. This list was built around the results that the source calls inconclusive (neither active nor inactive); the mix of calls is not that of the screen. The call rests on the fitted dose curve; in most records, active means well fitted inhibition curve with a large enough effect (not every such curve was filed as active); inconclusive means small, poorly fitted or top-dose-only effect, or another doubt; inactive means no such curve, though single readings can be large or run the other way. Potencies beside an inconclusive call are fits to weak or partial responses and may not hold up.

Target: Aldehyde dehydrogenase 1A1 (Homo sapiens) (UniProt P00352)
Assay: qHTS Assay for Inhibitors of Aldehyde Dehydrogenase 1 (ALDH1A1)
Settings: Purified ALDH1A1, NADH fluorescence, propionaldehyde substrate; series mostly up to 75.3 µM
Potency means the concentration at half of the fitted maximal effect; tags describe the fitted curve by direction and shape.

Sequence of UniProt P00352 (P00352 whole entry, looked up): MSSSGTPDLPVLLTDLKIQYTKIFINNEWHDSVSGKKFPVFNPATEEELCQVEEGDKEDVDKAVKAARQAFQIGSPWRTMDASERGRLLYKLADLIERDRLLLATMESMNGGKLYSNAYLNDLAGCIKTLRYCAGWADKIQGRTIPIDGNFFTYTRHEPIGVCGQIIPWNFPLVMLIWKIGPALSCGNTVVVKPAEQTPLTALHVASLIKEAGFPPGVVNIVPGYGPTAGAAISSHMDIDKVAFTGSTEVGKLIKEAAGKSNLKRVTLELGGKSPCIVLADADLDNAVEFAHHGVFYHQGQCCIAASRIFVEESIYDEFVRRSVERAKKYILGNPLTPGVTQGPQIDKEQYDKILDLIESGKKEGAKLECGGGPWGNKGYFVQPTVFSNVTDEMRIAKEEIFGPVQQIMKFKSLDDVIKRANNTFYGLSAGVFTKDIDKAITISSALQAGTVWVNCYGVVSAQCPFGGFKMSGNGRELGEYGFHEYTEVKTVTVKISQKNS

Potency, active:
CCCN1C(=O)C2(C(C(=O)c3ccc(C)o3)=C(O)C(=O)N2CCCN2CCOCC2)c2ccccc21 (stereo unspecified) 10 µM
CC(C)Cc1cc(C(=O)Nc2sc3c(c2C#N)CCCC3)no1 17.8 µM
COc1cccc(C2=NOC(C(=O)Nc3cccc(C(C)=O)c3)C2)c1 (stereo unspecified) 3.98 µM
O=C(NCc1ccccc1)c1ccc2c(c1)C(=O)N(CC1CCCO1)C2=O (stereo unspecified) 5.01 µM
C/C(N=NC(=[SH+])SCc1ccccc1)=C1\C=CC=CN1.[Cl][Cu] 2.51 µM
O=C(OCC#CCSc1nnc(-c2ccccc2)o1)c1cccs1 20 µM
COc1cccc(C(=O)/C=C/c2ccc(N3CCCCC3)c([N+](=O)[O-])c2)c1 14.1 µM
Cc1cc(C)c2c(c1)cc(C)c1nnc(SCC(=O)Nc3ccc(S(=O)(=O)N4CCCCC4)cc3)n12 20 µM

Potency, inactive:
CCN(CC)c1ccc(C(=O)N2CCN(Cc3ccccc3)CC2)cc1
Cc1ccc(N(CC(=O)NC(C)(C)C)C(=O)CS(=O)CC(=O)Nc2ccc3c(c2)OCO3)cc1 (stereo unspecified)
CCOC(=O)NCc1ccc2c(c1)cc(C)n2C
Cc1ccc(C(=O)NNC(=O)c2cccs2)cc1
COc1c(C)cc(C(=O)C2CCCN(Cc3cnc(N4CCOCC4)s3)C2)cc1C (stereo unspecified)
N#Cc1sc2nc(-c3cccs3)cc(-c3ccc(Cl)cc3)c2c1N
Cc1ccc(NC(=O)C(C)N2C(=O)c3ccccc3C2=O)cc1S(=O)(=O)N1CCOCC1 (stereo unspecified)
CC(C)(C)N(Cc1ccccc1)C(=O)COC(=O)c1cccc([N+](=O)[O-])c1
O=C(C1CCCN(S(=O)(=O)c2cccc3nonc23)C1)N1CCN(c2cccc(Cl)c2)CC1 (stereo unspecified)
O=C(Cc1cccs1)Nc1nc2ccccc2s1
C/C=C/C(=O)N(CC)c1ccccc1C
C[C@@H](C(=O)Nc1cccc(S(=O)(=O)N2CCOCC2)c1)N1C(=O)C2CC=CCC2C1=O (stereo partly specified)
COc1ccc(-c2[nH]ncc2CN(CCO)CC23CC4CC(CC(C4)C2)C3)c(OC)c1
COc1cc(S(=O)(=O)Nc2ccc(Br)cc2)ccc1N
COc1ncc2nc(-c3ccc(F)cc3)c(=O)n(CCc3ccccc3)c2n1
O=S1(=O)C=C(SCc2cccc(Cl)c2)Nc2ccccc21
CC(=O)Nc1ccc(Nc2c([N+](=O)[O-])cc(S(C)(=O)=O)cc2[N+](=O)[O-])cc1
CC(=O)NC(Cc1c[nH]c2ccccc12)C(=O)Nc1ccc2c(c1)OCO2 (stereo unspecified)
CC(C)c1nnc(NC(=O)c2cccnc2)s1
CN(C)/C=C/C(=O)c1cc(F)cc(C(F)(F)F)c1

Potency, inconclusive:
COc1ccc(OC)c(CNC(=O)CCCc2cn(C)c3ccccc23)c1 39.8 µM [inhibitor, single point]
CCOC(=O)c1oc2c(CN3CCN(C)CC3)c(O)ccc2c(=O)c1-c1ccc(Br)cc1 44.7 µM [inhibitor, single point]
COCCNC(=S)N(c1ccccc1)C(C)C 37.7 µM [inhibitor, single point]
O=C(Nc1ccc2c(c1)OCO2)c1ccc(Cl)s1 22.4 µM [inhibitor, single point]
CC(OC(=O)c1nsc(Cl)c1Cl)C(=O)NCc1ccc2c(c1)OCO2 (stereo unspecified) 31.6 µM [inhibitor, single point]
COCC(C)n1c(C)cc(C(=O)COC(=O)c2c(C)nn(-c3ccccc3)c2C)c1C (stereo unspecified) 35.5 µM [inhibitor, single point]
COc1cc(S(=O)(=O)N2CCOCC2)ccc1NC(=O)CN1c2cccc3cccc(c23)S1(=O)=O 35.5 µM [inhibitor, single point]
COCCn1nnnc1C(c1cccs1)N1CCN(c2nc3ccccc3s2)CC1 (stereo unspecified) 28.2 µM [inhibitor, single point]
Cc1cc(C)nc(-n2nc(C)c3c(C(F)(F)F)cc(=O)[nH]c32)n1 7.94 µM [inhibitor, partial curve]
Cc1n[nH]c(C)c1Sc1ccccc1N=Cc1cc(Cl)cc([N+](=O)[O-])c1O 39.8 µM [inhibitor, single point]
COc1ccc(C(=O)N2CCC3(CCN(C(=O)Nc4cccc(F)c4)CC3)CC2)cc1 14.1 µM [inhibitor, single point]
CC1CCCCN1C(=O)CCS(=O)(=O)c1cccc2nonc12 (stereo unspecified) 39.8 µM [inhibitor, single point]
c1ccc2scnc2c1 25.1 µM [inhibitor, single point]
CC(Oc1ccc(Cl)cc1)c1ccnn1S(=O)(=O)c1ccc(Cl)cc1 (stereo unspecified) 22.4 µM [inhibitor, single point]
CC(C)[C@H](NC(=O)c1ccco1)C(=O)OCc1cc(=O)n2c(n1)sc1ccccc12 39.8 µM [inhibitor, single point]
C/C(Cn1nc([N+](=O)[O-])cc1C)=N\NC(=O)COc1ccc(Cl)cc1Cl 28.2 µM [inhibitor, single point]
O=C1NC2(CCCCC2)C(=O)N1CCS(=O)(=O)Oc1ccccc1 31.6 µM [inhibitor, single point]
CS(=O)(=O)c1ccc2nc(NC(=O)Nc3cccc(Cl)c3)sc2c1 31.6 µM [inhibitor, single point]
Cc1ccc(C(=O)NCCc2ccc(S(=O)(=O)N3CCCC3)cc2)cc1 28.2 µM [inhibitor, partial curve]
O=C(c1ccc(Cl)c(Cl)c1)N1CCC(=O)N(C(COCc2ccccc2)Cc2ccccc2)CC1 (stereo unspecified) 44.7 µM [inhibitor, single point]
Nc1cc(Cl)c(N)c(Cl)c1 39.8 µM [inhibitor, single point]
CCCN1CCC(=NNC(=O)CSc2cc(C)c(Br)cc2C)CC1 3.55 µM [inhibitor, full curve]
NS(=O)(=O)c1ccc(N=Nc2ccc[nH]c2=O)cc1 6.31 µM [inhibitor, single point]
CC1=CC(C)(C)N(C(=O)Nc2ccccc2)c2ccccc21 25.1 µM [inhibitor, single point]
Cc1cccc(CNc2nc(-c3cccc(NS(C)(=O)=O)c3)nc3ccccc23)c1 31.6 µM [inhibitor, single point]
O=C(/C=C/c1ccc(Cl)cc1)N1CCN(c2ccc([N+](=O)[O-])c(N3CCOCC3)c2)CC1 10 µM [inhibitor, partial curve]
COC(=O)c1ccc2c(=O)n(CCCCCC(=O)NCc3ccccc3)c(=O)[nH]c2c1 39.8 µM [inhibitor, partial curve]
COc1ccc(-c2nc3ccccc3c(=O)n2CCOc2ccc(C)cc2C)cc1 39.8 µM [inhibitor, single point]
c1ccc(-c2nccc(-c3ccco3)n2)nc1 31.6 µM [inhibitor, single point]
CN1CCN(CCc2cn3ncc(C#N)c3nc2-c2ccc(F)cc2)CC1 25.1 µM [inhibitor, partial curve]
COc1cc(/C=N/Nc2nc3c(c(=O)n(C)c(=O)n3C)n2Cc2ccccc2)ccc1OC(=O)c1ccco1 37.7 µM [inhibitor, single point]
COC(=O)C1(C)Nc2ccccc2C(=O)N1c1ccccc1OC (stereo unspecified) 28.2 µM [inhibitor, partial curve]
Cc1ccc2[nH]c3c(c2c1)CCC3=O 3.16 µM [inhibitor, partial curve]
CCN1CC2=C(OC(N)=C(C#N)C2c2ccccc2)/C(=C\c2ccccc2)C1 (stereo unspecified) 25.1 µM [inhibitor, partial curve]
CSc1ncccc1C(=O)OCC(=O)Nc1ccc(S(=O)(=O)N2CCCC2)cc1 20 µM [inhibitor, partial curve]
O=C(CN(c1ccc(F)cc1)S(=O)(=O)c1ccc2c(c1)OCCO2)Nc1ccccc1 37.7 µM [inhibitor, single point]
O=C(O)CSc1c(-c2ccccc2)[nH]c2ccccc12 39.8 µM [inhibitor, single point]
CC1CCc2c(sc3nc(CSc4ncn[nH]4)[nH]c(=O)c23)C1 (stereo unspecified) 12.6 µM [inhibitor, partial curve]
CC(=O)Oc1c(Cl)cc(Cl)cc1/C=C/c1ccc2ccccc2n1 25.1 µM [inhibitor, single point]
CCOC(=O)c1cn(Cc2ccccc2)nn1 8.91 µM [inhibitor, single point]
CCCCCn1c(SCc2ccncc2)nc2cc(C(=O)NCc3ccco3)ccc2c1=O 22.4 µM [inhibitor, single point]
c1ccc(-c2ccc(CN3CCN(c4ncccn4)CC3)cc2)cc1 14.1 µM [inhibitor, partial curve]
Cc1ccc(C)c(NC(=O)CSc2nc3ccc(N4C(=O)c5ccccc5C4=O)cc3s2)c1 35.5 µM [inhibitor, single point]
